Results are given in words; binding and its absence hold for the method and conditions named. Binding seen in cells or lysates may run through a third protein. Some entries that bind do so weakly or less than the wild type. For some of these results: Tags and fused reporters may be left off the sequences shown.
What was measured:
[1] = molecular target: T1, SF-IL-17RC^TmRA (IL-17RC with the transmembrane domain of IL-17RA) (mouse) (UniProt Q8K4C2+Q60943); test: co-IP; anti-FLAG M2 agarose IP from 1% DDM lysates of ST2 cells retrovirally transduced with an SF-tagged receptor, immunoblot for endogenous proteins; cells unstimulated (SF-IL-17RC also after IL-17A 500 ng/ml for 15 min, unchanged)
T1 sequence: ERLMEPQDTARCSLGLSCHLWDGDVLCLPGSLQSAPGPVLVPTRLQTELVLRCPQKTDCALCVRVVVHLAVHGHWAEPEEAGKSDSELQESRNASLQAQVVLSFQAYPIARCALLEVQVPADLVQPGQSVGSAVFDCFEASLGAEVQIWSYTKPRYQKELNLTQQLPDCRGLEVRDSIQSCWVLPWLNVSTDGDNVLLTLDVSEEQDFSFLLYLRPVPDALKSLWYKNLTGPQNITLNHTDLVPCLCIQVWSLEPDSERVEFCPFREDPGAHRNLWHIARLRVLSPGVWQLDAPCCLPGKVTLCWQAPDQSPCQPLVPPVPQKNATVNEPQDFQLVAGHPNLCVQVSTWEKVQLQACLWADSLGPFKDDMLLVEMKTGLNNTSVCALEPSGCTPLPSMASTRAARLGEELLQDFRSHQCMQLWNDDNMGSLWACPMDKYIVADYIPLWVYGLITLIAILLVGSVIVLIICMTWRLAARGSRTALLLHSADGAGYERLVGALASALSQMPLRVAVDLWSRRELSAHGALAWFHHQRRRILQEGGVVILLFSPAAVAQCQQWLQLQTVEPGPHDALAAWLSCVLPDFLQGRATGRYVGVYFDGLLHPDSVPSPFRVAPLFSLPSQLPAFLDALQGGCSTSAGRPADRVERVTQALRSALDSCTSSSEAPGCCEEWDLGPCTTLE

Amino acid sequences for entries named in this document (tags omitted). A change or cut given only in a name is not applied to a line headed by its entry.
UniProt Q60943: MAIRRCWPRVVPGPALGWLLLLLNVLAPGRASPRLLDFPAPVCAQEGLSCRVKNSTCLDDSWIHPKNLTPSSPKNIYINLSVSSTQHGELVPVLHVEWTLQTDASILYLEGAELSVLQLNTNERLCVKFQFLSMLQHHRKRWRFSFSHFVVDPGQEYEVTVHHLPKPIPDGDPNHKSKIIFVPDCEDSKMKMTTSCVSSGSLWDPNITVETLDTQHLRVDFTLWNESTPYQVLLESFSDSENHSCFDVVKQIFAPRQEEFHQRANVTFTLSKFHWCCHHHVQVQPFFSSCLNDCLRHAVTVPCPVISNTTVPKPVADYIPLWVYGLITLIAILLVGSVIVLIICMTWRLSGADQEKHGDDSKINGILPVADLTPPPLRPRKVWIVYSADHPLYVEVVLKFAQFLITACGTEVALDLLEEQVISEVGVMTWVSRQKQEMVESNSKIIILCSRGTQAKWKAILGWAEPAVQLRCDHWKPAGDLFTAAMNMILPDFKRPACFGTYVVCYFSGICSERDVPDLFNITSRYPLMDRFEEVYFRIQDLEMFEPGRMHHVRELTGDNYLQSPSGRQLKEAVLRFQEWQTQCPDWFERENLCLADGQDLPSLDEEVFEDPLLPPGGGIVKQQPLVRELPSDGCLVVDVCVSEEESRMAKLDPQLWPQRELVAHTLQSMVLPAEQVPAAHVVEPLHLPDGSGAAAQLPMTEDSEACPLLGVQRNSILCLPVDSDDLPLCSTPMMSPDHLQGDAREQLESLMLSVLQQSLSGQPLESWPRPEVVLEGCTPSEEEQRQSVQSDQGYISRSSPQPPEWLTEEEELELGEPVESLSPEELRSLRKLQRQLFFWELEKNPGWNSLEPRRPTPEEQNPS
UniProt Q8CJ61: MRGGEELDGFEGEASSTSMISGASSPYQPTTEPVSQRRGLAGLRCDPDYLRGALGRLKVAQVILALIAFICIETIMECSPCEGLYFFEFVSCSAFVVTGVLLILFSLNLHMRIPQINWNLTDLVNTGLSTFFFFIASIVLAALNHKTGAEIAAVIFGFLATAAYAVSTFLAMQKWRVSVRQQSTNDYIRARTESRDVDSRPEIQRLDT

[2] = molecular target: T2, SF-IL-17RB (murine IL-17RB with C-terminal 2xStrep-3xFlag tag) (mouse) (UniProt Q9JIP3); test: as above
T2 sequence: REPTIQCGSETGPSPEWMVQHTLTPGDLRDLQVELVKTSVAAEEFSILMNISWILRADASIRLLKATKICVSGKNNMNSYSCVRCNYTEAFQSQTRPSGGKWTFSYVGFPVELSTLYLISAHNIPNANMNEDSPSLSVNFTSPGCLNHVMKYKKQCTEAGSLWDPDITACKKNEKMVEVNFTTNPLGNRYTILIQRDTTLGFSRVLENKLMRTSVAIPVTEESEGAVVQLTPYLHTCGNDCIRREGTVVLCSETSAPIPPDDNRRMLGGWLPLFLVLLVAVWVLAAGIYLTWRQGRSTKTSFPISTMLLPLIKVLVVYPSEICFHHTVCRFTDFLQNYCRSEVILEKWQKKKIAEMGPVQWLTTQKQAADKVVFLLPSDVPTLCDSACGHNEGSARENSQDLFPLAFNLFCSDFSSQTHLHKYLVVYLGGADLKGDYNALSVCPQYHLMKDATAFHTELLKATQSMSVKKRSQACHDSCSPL

[3] = molecular target: T3, SF-IL-17RD (murine IL-17RD with C-terminal 2xStrep-3xFlag tag) (mouse) (UniProt Q8JZL1); test: as above
T3 sequence: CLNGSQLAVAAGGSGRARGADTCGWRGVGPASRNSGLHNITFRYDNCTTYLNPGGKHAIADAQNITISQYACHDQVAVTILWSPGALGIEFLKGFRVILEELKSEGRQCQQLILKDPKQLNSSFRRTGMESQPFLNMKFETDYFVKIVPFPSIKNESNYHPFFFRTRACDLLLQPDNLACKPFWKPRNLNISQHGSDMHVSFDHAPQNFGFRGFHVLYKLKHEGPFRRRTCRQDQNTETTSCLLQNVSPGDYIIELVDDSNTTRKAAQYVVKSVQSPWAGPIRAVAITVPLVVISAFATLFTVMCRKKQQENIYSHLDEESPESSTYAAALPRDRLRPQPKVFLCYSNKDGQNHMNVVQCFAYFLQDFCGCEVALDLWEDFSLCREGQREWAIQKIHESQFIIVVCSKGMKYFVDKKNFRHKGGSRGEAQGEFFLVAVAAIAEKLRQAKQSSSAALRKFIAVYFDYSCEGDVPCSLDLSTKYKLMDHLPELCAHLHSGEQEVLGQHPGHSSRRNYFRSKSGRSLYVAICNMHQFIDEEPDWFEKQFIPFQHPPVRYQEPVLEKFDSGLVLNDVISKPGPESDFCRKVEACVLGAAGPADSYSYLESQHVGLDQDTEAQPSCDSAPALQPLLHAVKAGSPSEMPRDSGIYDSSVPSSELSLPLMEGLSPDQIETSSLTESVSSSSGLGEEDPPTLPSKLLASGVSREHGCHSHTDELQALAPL

[4] = molecular target: T4, IL-17RC (endogenous, mouse ST2 cells) (mouse (endogenous in ST2)) (UniProt Q8K4C2); test: co-IP; IP with IL-17RC antibody (isotype control antibody beside it) and Protein A/G PLUS agarose from lysates of ST2 cells, unstimulated or stimulated with IL-17A (500 ng/ml, 15 min), immunoblot
T4 sequence (chain, glycosylated (forms of approximately 100 kDa and 150 kDa)): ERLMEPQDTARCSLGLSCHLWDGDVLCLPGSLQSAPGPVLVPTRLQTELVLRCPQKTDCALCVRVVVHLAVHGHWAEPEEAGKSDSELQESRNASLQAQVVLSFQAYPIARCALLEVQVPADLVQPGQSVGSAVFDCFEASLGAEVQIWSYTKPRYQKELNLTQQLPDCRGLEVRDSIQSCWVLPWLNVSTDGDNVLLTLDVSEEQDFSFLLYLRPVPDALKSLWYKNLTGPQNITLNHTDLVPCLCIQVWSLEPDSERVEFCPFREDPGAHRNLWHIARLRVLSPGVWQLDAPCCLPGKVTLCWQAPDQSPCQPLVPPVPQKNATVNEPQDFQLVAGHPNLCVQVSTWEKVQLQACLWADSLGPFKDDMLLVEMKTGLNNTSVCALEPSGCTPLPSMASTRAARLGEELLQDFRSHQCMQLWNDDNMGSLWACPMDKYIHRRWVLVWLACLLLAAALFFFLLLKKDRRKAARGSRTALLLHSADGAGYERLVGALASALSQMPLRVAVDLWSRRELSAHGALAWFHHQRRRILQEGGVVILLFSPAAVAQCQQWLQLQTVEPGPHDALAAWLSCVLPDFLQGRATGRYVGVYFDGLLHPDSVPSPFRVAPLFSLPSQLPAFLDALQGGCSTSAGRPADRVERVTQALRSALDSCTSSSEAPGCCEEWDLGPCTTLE

In the case of “CMTM4 (endogenous, mouse ST2 cells) (from UniProt Q8CJ61 1-208)”, the binding [1] is reported as “no binding”, the binding [2] is reported as “no binding” and the binding [3] is reported as “no binding”. For the same substance, the binding [4] was “binds”.
